First the molecules themselves.
B1: PhoQ; a variant is named by its letters at X, in order, P23837 (parent)
chain: MKKLLRLFFPLSLRVRFLLATAAVVLVLSLAYGMVALIGYSVSFDKTTFRLLRGESNLFYTLAKWENNKLHVELPENIDKQSPTMTLIYDENGQLLWAQRDVPWLMKMIQPDWLKSNGFHEIEADVNDTSLLLSGDHSIQQQLQEVREDDDDAEMTHSVAVNVYPATSRMPKLTIVVVDTIPVELKSSYMVWSWFIYVLSANLLLVIPLLWVAAWWSLRPIEALAKEVRELEEHNRELLNPATTRELTSLVRNLNRLLKSERERYDKYRTTLTDLTHSLKTPLXXLQXXLRSLRSEKMSVSDAEPVMLEQISRISQQIGYYLHRASMRGGTLLSRELHPVAPLLDNLTSALNKVYQRKGVNISLDISPEISFVGEQNDFVEVMGNVLDNACKYCLEFVEISARQTDEHLYIVVEDDGPGIPLSKREVIFDRGQRVDTLRPGQGVGLAVAREITEQYEGKIVAGESMLGGARMEVIFGRQHSAPKDE

The list shows a part of the results. A value given as a limit tells only on which side of the number the result lay.

The source of these data is a collection of fitness landscapes (doi:10.1126/science.1257360).

In this assay the parent is B1. Kind of assay: enrichment ratio after two sorts for PhoP signalling (ratio (wild type AVST 3.29)); higher = more functional. The conditions noted are these: with PhoP (E. coli).
Take MWIN: the enrichment ratio is at most 0.25. For LLIA the value was at most 0.25.

In the case of TPGI, the enrichment ratio is at most 0.25. The value for PFWG was at most 0.25; that for DHNM was at most 0.25; that for LPET was at most 0.25.

With LWWG, the enrichment ratio is at most 0.25. The value for RQLV was at most 0.25; that for IFTE was at most 0.25. The value for FAEK was at most 0.25. The value for LTWT was at most 0.25. Turning to YSQA, the enrichment ratio is at most 0.25. The value for GKVF was at most 0.25; that for HERY was at most 0.25. For SCMN the value was 7.82; for DVDN, at most 0.25.

VYFD: the enrichment ratio is at most 0.25. For ANAD the value was at most 0.25; for EGFW, at most 0.25. For VPCL the value was at most 0.25; for NIVD, at most 0.25; for PINA, at most 0.25.

HCLM: the enrichment ratio was at most 0.25. For MTPI the value was at most 0.25; for YVIN, at most 0.25.

As for MLGA, the enrichment ratio is at most 0.25. For LKKW the value was at most 0.25; for DIGF, at most 0.25.

Regarding TQYA, the enrichment ratio worked out at 2.28. For LDHE the value was at most 0.25.

In the case of HISD, the enrichment ratio is at most 0.25. Take VTID: the enrichment ratio is at most 0.25.

As to FQFD, the enrichment ratio was at most 0.25.

Consider TSAI, for which the enrichment ratio was determined as 16.9.

As to MRPE, the enrichment ratio is at most 0.25.

As for RHDI, the enrichment ratio is at most 0.25. The value for SQDM was at most 0.25; that for ADSQ was at most 0.25; that for LWAS was at most 0.25. For YADQ the value was at most 0.25. For KSKP the value was at most 0.25; for LYSR, at most 0.25. As for IKIH, the enrichment ratio is at most 0.25. The value for EKST was at most 0.25; that for YKLI was at most 0.25. The value for PRVE was at most 0.25; that for LMGA was at most 0.25; that for MLWA was at most 0.25.

In the case of LSQW, the enrichment ratio is at most 0.25. For DFVR the value was at most 0.25; for MYRI, at most 0.25.

Turning to WSMT, the enrichment ratio was at most 0.25. For YQWA the value was at most 0.25; for VWAT, at most 0.25; for KEWS, at most 0.25. Regarding VFMM, the enrichment ratio is at most 0.25. For TFEH the value was at most 0.25; for RTFG, at most 0.25; for VILP, at most 0.25. The value for YLIV was at most 0.25; that for AGQN was at most 0.25. For HLNH the value was at most 0.25; for SIAW, 16.5. In the case of PHDP, the enrichment ratio was at most 0.25. The value for KTQC was at most 0.25. For RHSF, the enrichment ratio was at most 0.25. DWLI: the enrichment ratio is at most 0.25. For EILI the value was at most 0.25; for SKRL, at most 0.25; for DEYV, at most 0.25. The value for SICD was 4.76.

As to FDAM, the enrichment ratio is at most 0.25. For IYFP the value was at most 0.25. In the case of PRYM, the enrichment ratio is at most 0.25. As to SYSF, the enrichment ratio was at most 0.25. For PNNY the value was at most 0.25.

FFEV: the enrichment ratio is at most 0.25.

For WHSM, the enrichment ratio was at most 0.25. For the variant WIMG, the enrichment ratio was at most 0.25.

For LLWI, the enrichment ratio was at most 0.25. As to PRRL, the enrichment ratio is at most 0.25. For TRTV the value was 9.35; for LLCH, at most 0.25; for KTGE, at most 0.25. The value for TKLW was at most 0.25.

For the variant SVYH, the enrichment ratio is 0.421.

Regarding FSNS, the enrichment ratio is at most 0.25.

Take THLK: the enrichment ratio is at most 0.25. The value for MVYV was at most 0.25. The value for IQAE was at most 0.25; that for LGLI was 7.51. For VFIL the value was at most 0.25. Turning to AWMN, the enrichment ratio is at most 0.25. For WQAY the value was at most 0.25; for KHPS, at most 0.25; for QTNS, 0.432. As for NRMC, the enrichment ratio was at most 0.25.

As to RCFH, the enrichment ratio was at most 0.25. The value for HGKY was at most 0.25; that for RNEI was at most 0.25. The value for RDWK was at most 0.25; that for WRNR was at most 0.25.

Regarding MLFA, the enrichment ratio is at most 0.25. The value for LEHH was at most 0.25. For AWEV the value was at most 0.25. For NHLW the value was at most 0.25; for SWYA, at most 0.25. In the case of AERT, the enrichment ratio is at most 0.25.

Turning to LYIV, the enrichment ratio is at most 0.25. The value for GPHT was at most 0.25; that for YHIN was at most 0.25.

EQYY: the enrichment ratio is at most 0.25. For HQSF the value was at most 0.25.

For the variant IHNE, the enrichment ratio was at most 0.25. For EIAP the value was at most 0.25; for LCIY, at most 0.25; for VKMR, at most 0.25. For MVRI the value was at most 0.25; for KDDR, at most 0.25.

For the variant DTWT, the enrichment ratio is at most 0.25. The value for KCRG was at most 0.25.

For VLPN, the enrichment ratio was at most 0.25. In the case of QSNW, the enrichment ratio is at most 0.25. The value for LCVI was at most 0.25; that for VGWV was at most 0.25.

Regarding TVAI, the enrichment ratio amounted to 3.37. For HYFS the value was at most 0.25; for QSDL, 11; for LSID, at most 0.25. For IEAY the value was at most 0.25; for MDYS, at most 0.25; for VYRW, at most 0.25. For FTYH the value was at most 0.25; for DYKH, at most 0.25. On to MNTC, for which the enrichment ratio was at most 0.25. For APFR the value was at most 0.25; for QGTI, 3; for LTPK, at most 0.25. The value for TWYG was at most 0.25. The value for YWFL was at most 0.25; that for FVIK was at most 0.25; that for MFWS was at most 0.25.

Take QSPG: the enrichment ratio is at most 0.25. For MNGI, the enrichment ratio amounted to 5.05. For RSTR the value was at most 0.25; for ARMV, at most 0.25; for DYTY, at most 0.25. The value for GGWE was at most 0.25; that for IGSI was at most 0.25; that for RSAE was at most 0.25.

Regarding QDHH, the enrichment ratio was at most 0.25. With PCNS, the enrichment ratio was at most 0.25. For YTGF the value was at most 0.25.
